The list shows a part of the results. Most values come without repeats; read them as rough.
Columns and labels:
Test in all cases: cell count relative to DMSO control; melanoma cells; higher = more viable cells
Details in all cases: library dose: standard library concentration; 72 h
G361 = test system: G361
IPC-298 = test system: IPC-298
IST-MEL1 = test system: IST-MEL1
LB2518-MEL = test system: LB2518-MEL
LOXIMVI = test system: LOXIMVI
MEL-HO = test system: MEL-HO
MZ2-MEL = test system: MZ2-MEL
MeWo = test system: MeWo
RPMI7951 = test system: RPMI7951
RVH-421 = test system: RVH-421
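Also: cells treated in 1,536-well plates, then fixed and DAPI-stained, with nuclei counted from automated high-throughput microscope images.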

Row | Compound | cell count (G361) | cell count (IPC-298) | cell count (IST-MEL1) | cell count (LB2518-MEL) | cell count (LOXIMVI) | cell count (MEL-HO) | cell count (MZ2-MEL) | cell count (MeWo) | cell count (RPMI7951) | cell count (RVH-421)
1 | OCCn1cc(-c2cnc3nnn(Cc4ccc5ncccc5c4)c3n2)cn1 + C[C@@H]1CCN(C(=O)CC#N)C[C@@H]1N(C)c1ncnc2[nH]ccc12 [CP690550] (first compound 5 µM, partner dose 5 µM) | 84.6% | 114% | 362% | 112% | 85.6% | 92.9% | 116% | 90.7% | 88.6% | 12.4%
2 | Cc1nc(Nc2ncc(C(=O)Nc3c(C)cccc3Cl)s2)cc(N2CCN(CCO)CC2)n1 [dasatanib] + CC(C)CCN1c2nc(Nc3cc(F)c(O)c(F)c3)ncc2N(C)C(=O)C1C [BID1870] (first compound 0.02 µM, partner dose 1 µM) | 56.5% | 68.6% | 65.6% | 53.8% | 45.4% | 62.9% | 67.8% | 64.4% | 55.2% | 51.6%
3 | CO[C@@H]1[C@H](N(C)C(=O)c2ccccc2)C[C@H]2O[C@]1(C)n1c3ccccc3c3c4c(c5c6ccccc6n2c5c31)C(=O)NC4 [Midostaurin] + NCC(=O)Nc1ccc(-n2nc(C(F)(F)F)cc2-c2ccc3c(ccc4ccccc43)c2)cc1 [OSU03012] (first compound 0.4 µM, partner dose 5 µM) | 32% | 40.9% | 49.8% | 49.3% | 46.3% | 59.8% | 45.6% | 66.8% | 28.3% | 334%
4 | NCC(=O)Nc1ccc(-n2nc(C(F)(F)F)cc2-c2ccc3c(ccc4ccccc43)c2)cc1 + O=S(=O)(c1ccccc1)N(CC(F)(F)F)c1ccc(C(O)(C(F)(F)F)C(F)(F)F)cc1 [T0901317] (first compound 5 µM, partner dose 7 µM) | 13.8% | 47.9% | 77.1% | 74.2% | 70.1% | 68.4% | 60% | 68% | 11.2% | 61.4%
5 | C[C@]1(c2nc3c(C(N)=O)cccc3[nH]2)CCCN1 [Veliparib] + COc1cc(N2CCC(N3CCN(C)CC3)CC2)ccc1Nc1ncc(Cl)c(Nc2ccccc2S(=O)(=O)C(C)C)n1 [NVP-TAE684] (first compound 7 µM, partner dose 0.4 µM) | 95% | 96.9% | 95.7% | 63.5% | 95% | 93.1% | 84% | 77.3% | 77.9% | 81.2%
6 | C=CCn1c(=O)c2cnc(Nc3ccc(N4CCN(C)CC4)cc3)nc2n1-c1cccc(C(C)(C)O)n1 + O=C1NC(=O)/C(=C/c2ccc(-c3ccc(F)cc3O)o2)S1 [AS252424] (first compound 0.1 µM, partner dose 5 µM) | 82.6% | 105% | 111% | 24.1% | 90.4% | 91.9% | 97.3% | 89.2% | 92.4% | 83%
7 | NCC(=O)Nc1ccc(-n2nc(C(F)(F)F)cc2-c2ccc3c(ccc4ccccc43)c2)cc1 + CC(C)CCN1c2nc(Nc3cc(F)c(O)c(F)c3)ncc2N(C)C(=O)C1C [BID1870] (first compound 5 µM, partner dose 1 µM) | 69.9% | 55% | 65.3% | 88.4% | 66.6% | 69.9% | 84.1% | 71.1% | 140% | 31.4%
8 | Cc1nc(Nc2ncc(C(=O)Nc3c(C)cccc3Cl)s2)cc(N2CCN(CCO)CC2)n1 [dasatanib] + O=C(Nc1cccc(Cl)c1)Nc1ncc(CCNc2ncnc3ccsc23)s1 [SNS314] (first compound 0.02 µM, partner dose 0.004 µM) | 52.6% | 79.8% | 39.5% | 76.9% | 15.7% | 59.9% | 51.2% | 56.5% | 48.7% | 43.3%
9 | NC(=O)Nc1cc(-c2cccc(F)c2)sc1C(=O)N[C@H]1CCCNC1 + O=S(=O)(c1ccccc1)N(CC(F)(F)F)c1ccc(C(O)(C(F)(F)F)C(F)(F)F)cc1 [T0901317] (first compound 0.1 µM, partner dose 7 µM) | 92.6% | 82% | 94.2% | 49.1% | 105% | 80.2% | 88.9% | 67.3% | 48.7% | 99.1%
10 | Cc1nc(Nc2ncc(C(=O)Nc3c(C)cccc3Cl)s2)cc(N2CCN(CCO)CC2)n1 [dasatanib] + N#Cc1c(O)c2c(-c3ccc(-c4ccccc4O)cc3)csc2[nH]c1=O [A769662] (first compound 0.02 µM, partner dose 10 µM) | 81.1% | 94.3% | 64.2% | 86.9% | 23.1% | 78.6% | 52.7% | 91.9% | 36.7% | 89.7%
11 | OCCn1cc(-c2cnc3nnn(Cc4ccc5ncccc5c4)c3n2)cn1 + CN(NC(=O)CC(=O)NN(C)C(=S)c1ccccc1)C(=S)c1ccccc1 [STA4783] (first compound 5 µM, partner dose 0.03 µM) | 44.5% | 79.3% | 24.4% | 20.7% | 77.6% | 86.4% | 116% | 15.5% | 66.5% | 65.4%
12 | NC(=O)Nc1cc(-c2cccc(F)c2)sc1C(=O)N[C@H]1CCCNC1 + CC(C)CCN1c2nc(Nc3cc(F)c(O)c(F)c3)ncc2N(C)C(=O)C1C [BID1870] (first compound 0.1 µM, partner dose 1 µM) | 70.3% | 89.6% | 104% | 71% | 108% | 74% | 85.6% | 70.7% | 49.5% | 80.6%
13 | OCCn1cc(-c2cnc3nnn(Cc4ccc5ncccc5c4)c3n2)cn1 + O=C(Nc1cccc(Cl)c1)Nc1ncc(CCNc2ncnc3ccsc23)s1 [SNS314] (first compound 5 µM, partner dose 0.004 µM) | 86.4% | 87.7% | 47.8% | 75.3% | 63.3% | 71.9% | 81.4% | 62.8% | 64.8% | 68.5%
14 | NC(=O)Nc1cc(-c2cccc(F)c2)sc1C(=O)N[C@H]1CCCNC1 + CN(C)S(=O)(=O)c1ccc2c(c1)/C(=C/c1cc3c([nH]1)CCCC3)C(=O)N2 [SU6656] (first compound 0.1 µM, partner dose 2 µM) | 80.9% | 90.9% | 68.9% | 64.5% | 56.4% | 59.6% | 110% | 51.2% | 35.4% | 75.7%
15 | Cc1nc(Nc2ncc(C(=O)Nc3c(C)cccc3Cl)s2)cc(N2CCN(CCO)CC2)n1 [dasatanib] + O=C(Nc1ccccc1)c1cc([N+](=O)[O-])ccc1Cl [GW9662] (first compound 0.02 µM, partner dose 10 µM) | 74.9% | 85.8% | 71.3% | 82% | 275% | 69.6% | 44% | 75.2% | 35.6% | 61.7%
16 | CO[C@@H]1[C@H](N(C)C(=O)c2ccccc2)C[C@H]2O[C@]1(C)n1c3ccccc3c3c4c(c5c6ccccc6n2c5c31)C(=O)NC4 [Midostaurin] + COC(=O)c1sccc1S(=O)(=O)Nc1ccc(Nc2ccccc2)cc1OC [GSK0660] (first compound 0.4 µM, partner dose 5 µM) | 44% | 47.5% | 67.5% | 55.1% | 67.8% | 70% | 34.8% | 69.2% | 27.2% | 60%
17 | OCCn1cc(-c2cnc3nnn(Cc4ccc5ncccc5c4)c3n2)cn1 + COc1cc2c(Oc3ccc4[nH]c(C)cc4c3F)ncnc2cc1OCCCN1CCCC1 [cediranib] (first compound 5 µM, partner dose 2 µM) | 95.1% | 101% | 92.8% | 85.1% | 73.5% | 101% | 101% | 79.6% | 84% | 79.7%
18 | C=CCn1c(=O)c2cnc(Nc3ccc(N4CCN(C)CC4)cc3)nc2n1-c1cccc(C(C)(C)O)n1 + Cn1cncc1[C@@](N)(c1ccc(Cl)cc1)c1ccc2c(c1)c(-c1cccc(Cl)c1)cc(=O)n2C [tipifarnib] (first compound 0.1 µM, partner dose 0.05 µM) | 64.8% | 73.3% | 88% | 44.5% | 54.3% | 87.2% | 97.2% | 72.8% | 55.1% | 81.6%
19 | NCC(=O)Nc1ccc(-n2nc(C(F)(F)F)cc2-c2ccc3c(ccc4ccccc43)c2)cc1 + Oc1cc(-c2nc(-c3ccccc3)[nH]c2-c2ccncc2)ccc1Cl [L779450] (first compound 5 µM, partner dose 1 µM) | 71% | 54.9% | 83.1% | 73.7% | 94.4% | 76% | 64% | 77.5% | 76.1% | 71.7%
20 | C[C@]1(c2nc3c(C(N)=O)cccc3[nH]2)CCCN1 [Veliparib] + O=C(Nc1ccccc1)c1cc([N+](=O)[O-])ccc1Cl [GW9662] (first compound 7 µM, partner dose 10 µM) | 67.5% | 105% | 86.8% | 69.1% | 60.7% | 98.3% | 73.9% | 77% | 107% | 73.6%
21 | CO[C@@H]1[C@H](N(C)C(=O)c2ccccc2)C[C@H]2O[C@]1(C)n1c3ccccc3c3c4c(c5c6ccccc6n2c5c31)C(=O)NC4 [Midostaurin] + Cn1cc(/C=C2\C(=O)Nc3cccnc32)c2ccccc21 [GW441756] (first compound 0.4 µM, partner dose 2 µM) | 67.2% | 56.2% | 87.8% | 50.1% | 54.2% | 80.4% | 56.7% | 70.4% | 46.4% | 85.2%
22 | CN(C)S(=O)(=O)c1ccc2c(c1)/C(=C/c1cc3c([nH]1)CCCC3)C(=O)N2 + COc1ccc2c(c1)CCC1C2CCC2(C)C(NCCCCCCN3C(=O)C=CC3=O)CCC12 [U73122] (first compound 2 µM, partner dose 2 µM) | 75% | 88.3% | 97.7% | 87.6% | 114% | 99.7% | 85.5% | 76.8% | 36.2% | 99.2%
